Experimental data published in paper PMC12391319.
Results are given in words; binding and its absence hold for the method and conditions named. In cells and extracts the contact can be indirect. Some binding calls cover weakened binding; strength is not graded here. For part of these data: Where a sequence is shown, tags or fusion partners need not be part of it.

By UniProt entry, the sequences of proteins in these tests, tags left out.
UniProt Q14145: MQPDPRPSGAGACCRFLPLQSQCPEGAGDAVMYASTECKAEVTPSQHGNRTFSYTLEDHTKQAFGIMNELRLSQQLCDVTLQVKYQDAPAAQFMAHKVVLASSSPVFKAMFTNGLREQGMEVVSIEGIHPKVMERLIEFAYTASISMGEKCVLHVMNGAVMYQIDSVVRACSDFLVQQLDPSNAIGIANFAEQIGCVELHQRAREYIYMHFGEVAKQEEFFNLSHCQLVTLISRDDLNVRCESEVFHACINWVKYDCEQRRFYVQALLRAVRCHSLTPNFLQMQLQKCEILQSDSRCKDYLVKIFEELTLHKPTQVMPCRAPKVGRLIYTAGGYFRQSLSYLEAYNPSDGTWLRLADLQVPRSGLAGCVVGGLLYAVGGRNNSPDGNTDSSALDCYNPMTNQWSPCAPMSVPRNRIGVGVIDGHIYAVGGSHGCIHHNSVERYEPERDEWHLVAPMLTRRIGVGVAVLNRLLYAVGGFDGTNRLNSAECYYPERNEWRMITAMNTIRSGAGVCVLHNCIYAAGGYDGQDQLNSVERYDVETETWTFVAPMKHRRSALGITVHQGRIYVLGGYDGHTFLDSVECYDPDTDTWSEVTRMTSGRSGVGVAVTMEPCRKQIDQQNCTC
UniProt Q9Z2X8: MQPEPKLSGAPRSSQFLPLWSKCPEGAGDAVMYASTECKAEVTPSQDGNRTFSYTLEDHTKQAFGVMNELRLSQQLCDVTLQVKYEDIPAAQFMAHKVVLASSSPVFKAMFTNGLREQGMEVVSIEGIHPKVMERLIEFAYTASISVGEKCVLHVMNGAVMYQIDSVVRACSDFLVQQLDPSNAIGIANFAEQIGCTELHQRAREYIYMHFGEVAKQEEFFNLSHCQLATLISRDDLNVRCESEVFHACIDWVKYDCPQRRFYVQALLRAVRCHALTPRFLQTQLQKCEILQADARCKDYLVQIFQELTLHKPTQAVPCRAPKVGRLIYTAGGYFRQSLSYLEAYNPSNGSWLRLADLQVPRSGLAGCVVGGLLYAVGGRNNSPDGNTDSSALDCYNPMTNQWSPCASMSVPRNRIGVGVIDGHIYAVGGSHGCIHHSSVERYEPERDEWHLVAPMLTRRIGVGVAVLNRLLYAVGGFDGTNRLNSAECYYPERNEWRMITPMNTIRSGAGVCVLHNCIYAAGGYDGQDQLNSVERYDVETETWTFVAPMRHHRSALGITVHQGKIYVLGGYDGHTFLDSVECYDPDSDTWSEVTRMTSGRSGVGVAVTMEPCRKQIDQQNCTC

Tests used:
[1] = target: T1, FLAG-IRGM (human IRGM, full-length) (human) (UniProt A1A4Y4); assay: co-IP; HEK293T transiently transfected for 48 h with FLAG-IRGM (full-length, D1 or D2) and HA-KEAP1; IP with anti-FLAG or anti-HA, WB
T1 sequence: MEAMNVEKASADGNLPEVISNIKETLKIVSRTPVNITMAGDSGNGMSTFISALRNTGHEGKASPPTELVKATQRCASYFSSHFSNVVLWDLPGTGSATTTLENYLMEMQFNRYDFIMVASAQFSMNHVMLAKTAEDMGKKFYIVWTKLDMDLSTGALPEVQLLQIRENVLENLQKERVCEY

[2] = target: HA-KEAP1 (human KEAP1) (human) (UniProt Q14145); assay: as above
[3] = target: T2, FLAG-IRGM-D2 (position 32–181) (human) (UniProt A1A4Y4); assay: as above
T2 sequence: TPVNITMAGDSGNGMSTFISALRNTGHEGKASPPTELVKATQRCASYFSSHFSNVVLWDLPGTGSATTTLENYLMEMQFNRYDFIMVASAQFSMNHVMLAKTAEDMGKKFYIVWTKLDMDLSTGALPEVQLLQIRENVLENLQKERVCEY

[4] = target: T3, FLAG-IRGM-D1 (position 1–31) (human) (UniProt A1A4Y4); assay: as above
T3 sequence: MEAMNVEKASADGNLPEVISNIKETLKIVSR

[5] = target: kelch-like ECH-associated protein 1 (Keap1), in RAW264.7 cells (mouse) (UniProt Q9Z2X8); assay: co-IP; extracts of RAW264.7 cells overexpressing Irgm1 or Keap1; Irgm1 or Keap1 immunoprecipitated (antibody overnight at 4 °C, protein A/G), precipitates analysed by WB; also Keap1 precipitates from sh-Irgm1 or oe-Irgm1 cells treated with 5 μM MG132 and 40 ng/ml RANKL for 6 h (less Usp25 with Keap1 in Irgm1-deficient cells)
[6] = target: T4, Immunity-related GTPase family M member 1 (Irgm1), in RAW264.7 cells (mouse) (UniProt Q60766); assay: as above
T4 sequence: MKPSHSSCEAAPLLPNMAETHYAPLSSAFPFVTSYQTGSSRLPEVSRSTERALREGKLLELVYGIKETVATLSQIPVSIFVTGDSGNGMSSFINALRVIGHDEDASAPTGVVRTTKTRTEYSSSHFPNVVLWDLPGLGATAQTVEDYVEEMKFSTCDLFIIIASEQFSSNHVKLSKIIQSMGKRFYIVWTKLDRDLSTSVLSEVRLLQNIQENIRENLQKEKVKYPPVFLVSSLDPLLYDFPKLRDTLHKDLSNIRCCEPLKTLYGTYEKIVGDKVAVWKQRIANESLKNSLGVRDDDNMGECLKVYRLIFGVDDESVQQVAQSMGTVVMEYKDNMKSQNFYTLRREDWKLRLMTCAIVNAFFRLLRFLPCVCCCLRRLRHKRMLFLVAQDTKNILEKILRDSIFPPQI

| Molecule | binding [1] | binding [2] | binding [5] | further results |
| --- | --- | --- | --- | --- |
| Usp25, in HEK293T cells (from UniProt Q9UHP3 1-1055) (enzyme) | binds | binds | – | – |
| HA-KEAP1 (human KEAP1) (from UniProt Q14145 1-624) | binds | – | – | binding [3]: binds; binding [4]: no binding |
| Immunity-related GTPase family M member 1 (Irgm1), in RAW264.7 cells (protein, UniProt Q60766 1-409) MKPSHSSCEAAPLLPNMAETHYAPLSSAFPFVTSYQTGSSRLPEVSRSTERALREGKLLELVYGIKETVATLSQIPVSIFVTGDSGNGMSSFINALRVIGHDEDASAPTGVVRTTKTRTEYSSSHFPNVVLWDLPGLGATAQTVEDYVEEMKFSTCDLFIIIASEQFSSNHVKLSKIIQSMGKRFYIVWTKLDRDLSTSVLSEVRLLQNIQENIRENLQKEKVKYPPVFLVSSLDPLLYDFPKLRDTLHKDLSNIRCCEPLKTLYGTYEKIVGDKVAVWKQRIANESLKNSLGVRDDDNMGECLKVYRLIFGVDDESVQQVAQSMGTVVMEYKDNMKSQNFYTLRREDWKLRLMTCAIVNAFFRLLRFLPCVCCCLRRLRHKRMLFLVAQDTKNILEKILRDSIFPPQI | – | – | binds | – |
| Usp25, in RAW264.7 cells (enzyme, UniProt P57080 1-1055) MTVEQNVLQQSAAQKHQQTFLNQLREITGINDAQILQQALKDSNGNLELAVAFLTAKNAKTPPQEETGYYQTALPGNDRYISVGSQADANVIDLTGDDKDDLQRAIALSLAESNRAFRETGITDEEQAISRVLEASIAENKACLKRTPIEVWRDSRNPYDRKRQEKAPVGLKNVGNTCWFSAVIQSLFNLLEFRRLVLNYKPPSNAQDLPRNQKEHRNLPFMRELRYLFALLVGTKRKYVDPSRAVEILKDAFKSNDSQQQDVSEFTHKLLDWLEDAFQMKAEEETDEEKPKNPMVELFYGRFLAMGVLEGKKFENTEMFGQYPLQVNGFKDLHECLEAAMIEGEIESLHSDNSGKSGQEHWFTELPPVLTFELSRFEFNQALGRPEKIHNKLEFPQVLYLDRYMHRNREITRIKREEIKRLKDYLTVLQQRLERYLSYGSGPKRFPLVDVLQYALEFASSKPVCTSPVDDIDASSSASGPLPSQSLPSTTEQQGPCASDLPGSSSPASGAALPLRSVIHKPFTQSRIPPDLPMHPAPRHITEEELCVLESCLHRWRTEIENDTRDLQESISRIHRTIELMYSDKSMIQVPYRLHAVLVHEGQANAGHYWAYIFDHRESRWMKYNDIAVTKSSWEELVRDSFGGYRNASAYCLMYIDDKAQFLIQEEFNKETGQALVGMETLPPDLRDFVEEDNQRFEKELEEWDTQLAQRSLQEKLLAAPKLREAEASATTAQAGGADYLEQPSRSDLSKHWKEETLRVIAKASHDLEDKGPETVLQSAIKLEYSRLVKLAQEDTPPETDYRLHHVLVYFIQNQAPKKIIEKTLLEQFGDRNLSFDERCHNIMKVAQAKLEMIKPEEVNLEEYEEWHADYKKFRETTMYLITGLENFQRESYIDSLLFLLCAYQNNKELLSKGPYRGHDGELISHYRRECLLKLNEQAAELFESGEDGDVNNGLIIMNEFIVPFLPLLLVDDMEEKDILAVEDMRNRWCSYLGQEMEANLQEKLTDFLPKLLDCSTEIKGFHEPPKLPSYSAHELCERFARIMLSLSRTPADGR | – | – | binds | binding [6]: binds |
| FLAG-IRGM (human IRGM, full-length) (protein, UniProt A1A4Y4 1-181) MEAMNVEKASADGNLPEVISNIKETLKIVSRTPVNITMAGDSGNGMSTFISALRNTGHEGKASPPTELVKATQRCASYFSSHFSNVVLWDLPGTGSATTTLENYLMEMQFNRYDFIMVASAQFSMNHVMLAKTAEDMGKKFYIVWTKLDMDLSTGALPEVQLLQIRENVLENLQKERVCEY | – | binds | – | – |
